From patent US6949753B2, “Device and method for photoactivation” (Cerus Corporation, priority 1992, dated 2005)

Assays:
[1] = system: Yersinia enterocolitica, wild type, serotype 3, biotype 4; experiment: Inactivation of Yersinia enterocolitica in human platelet concentrate by 8-MOP plus UVA irradiation, colony counts on BHI agar; format: cell-based; conditions: for sufficiency of irradiation for inactivation: 10 ug/ml 8-MOP; for -titer (change of log titer versus untreated control) / log/ml (bacterial titer after treatment): irr. time 10 min UVA; for log/ml (bacterial titer after treatment): platelet concentrate, 25° C., untreated control 9.1
Source text: This organism is found in blood products.

[2] = system: viruses; conditions: 300 ug/ml of 8-MOP, one hour or more of irradiation with ultraviolet light; cited from earlier work
[3] = system: GMP140 on human platelets; experiment: Platelet activation, GMP140 expression by CD62 antibody and flow cytometry (FACSCAN); format: cell-based; conditions: 10 ug/ml 8-MOP, five minutes UVA, 25° C., stored for 5 days
Source text: When platelets become activated, an alpha granule membrane glycoprotein called GMP140 becomes exposed on the platelet surface. Less than (5%) of fresh, normal unstimulated platelets express detectable GMP 140 levels by flow cytometry. See generally M. J. Metzelaar, Studies on the Expression of Activation-Markers on Human Platelets (Thesis 1991).
To measure GMP140, a small aliquot of platelet rich plasma is placed in HEPES buffer containing a GMP140-binding antibody or control mouse IgG. CD62 is a commercially available monoclonal antibody which binds to GMP 140 (available from Sanbio, Uden, the Netherlands; Caltag Labs, So. San Francisco, Calif., and Becton Dickinson, Mountain View, Calif.). After a fifteen minute incubation, Goat Anti-Mouse IgG conjugated to FITC is added to the tube in saturating amounts. Finally, the cells are diluted in isotonic saline, fixed with paraformaldehyde and analyzed on a FACSCAN™ (Becton Dickinson, Mountain View, Calif.). The positive control is made by adding Phorbol Myristate Acetate (PMA) to the test system at a final concentration of 10−^7 M.
In this example, CD62 was employed to measure the impact, if any, of irradiation alone on platelet activation. […]
Isoton II was added (1 ml) to each tube and mixed gently with a polypropylene disposable pipette. […] The platelets were analyzed on the FACSCAN™. […]

[4] = system: Calf Thymus DNA; experiment: Photoaddition of 3H-8-MOP to Calf Thymus DNA in plasma versus protein free medium; format: binding; conditions: plasma versus protein free media (TE buffer), irradiated 0-16 minutes at 25° C.
Procedure: Although this measurement used eukaryotic nucleic acid rather than bacterial nucleic acid, it is a useful indicator of the degree of adduct formation for bacteria.
[…]. […] To +DNA samples, 40 ul of DNA stock (7.7 mg/ml) was added as well as either 460 ul plasma (day old frozen) or 450 ul Tris-EDTA (“TE”) buffer. To the latter was also added 10 ul 5M NaCl. For −DNA samples (i.e. the controls), 184 ul plasma and 16 ul water was added.
The samples were mildly vortexed for approximately one hour and the counts were checked to confirm that the 8-MOP dissolved.
Each sample (100 ul) was irradiated on an HRI-100 (HRI Research Inc., Concord, Calif.) at 25° C. for 0, 2, 4, 8, and 16 minutes. Samples were kept at 4° C. overnight after irradiation. Thereafter, the samples were extracted. First, a phenol solution was prepared at pH 8 by equilibrating with 0.1 M Tris pH 8. Each sample was then extracted with 100 ul phenol. Each sample was centrifuged for 5 minutes to remove the aqueous phase to a new tube. A second extraction was performed with 100 ul 1:1 phenol:chloroform. A final extraction was performed with 100 ul chloroform.
The final aqueous phase was precipitated by adding 50 ul NaCl adjusted to give a final concentration of NaCl of 0.2 M and then adding 250 ul ethanol. The samples were again centrifuged (10 minutes). […] The final pellets were brought up in 600 ul water and 100 ul was counted. […]

[5] = Photochemical breakdown of 8-MOP compared with AMT, reverse phase HPLC; format: physicochemical; conditions: AMT compared with 8-MOP
Procedure: In this example, the photochemical breakdown of 8-MOP is compared with AMT. The samples were analyzed by reverse phase HPLC using a Rainen Dynamax 300A column. Gradient elution was performed with 0.1 M ammonium acetate/acetonitrile (0-70% acetonitrile over 42 minutes). AMT elutes as a single peak at approximately 24 minutes under these conditions. Detection was by absorption at either 260 or 330 nm. The latter wavelength was used for the plasma containing samples.
Standard solutions of each compound were prepared at various concentrations. These solutions were then diluted 1:10 into water, then 300 ul injected for analysis. All samples were monitored at 300 nm. Peaks were analyzed by measuring either peak height or peak area, then converted to a gh/ml value using the standard plot. Peak area was determining by photocopying the trace, cutting out the copy of the peak, then weighing the resultant trace. The two methods gave essentially the same result.

SMILES | bacteria inactivated ([1]; 3 ug/ml of 8-MOP, 10 min UVA) | sufficiency of irradiation for inactivation ([1]; five minutes of irradiation) | sufficiency of irradiation for inactivation ([1]; ten minutes irradiation) | -titer (change of log titer versus untreated control) ([1]; 8-MOP .06 ug/ml) | log/ml (bacterial titer after treatment) ([1]; 8-MOP .06 ug/ml) | -titer (change of log titer versus untreated control) ([1]; 8-MOP .2 ug/ml) | log/ml (bacterial titer after treatment) ([1]; 8-MOP .2 ug/ml) | virus inactivation [2] | impact on platelets (CD62 assay) of irradiation in the presence of psoralen [3] | addition of 8-MOP to DNA (adducts per 1000 base pairs, FIG. 6) [4] | photochemical degradation on irradiation (HPLC, FIG. 7) [5]
COc1c2occc2cc2ccc(=O)oc12 [8-MOP, 8-methoxypsoralen] | almost six logs | appears to be adequate | more than enough irradiation | −0.1 | 9.0 log/ml | −2.3 | 6.8 log/ml | effectively inactivate viruses | without damage to the cells | much better in the protein free media | –
Cc1oc2c(C)c3oc(=O)cc(C)c3cc2c1CN [AMT, 4′-aminomethyl-4,5′,8-trimethylpsoralen] | – | – | – | – | – | – | – | – | – | – | degrades more quickly than 8-MOP
